Laboratory results reported in patent US20260200947A1, “FUSED CYCLIC COMPOUNDS AND USE THEREOF” (Jacobio Pharmaceuticals Co., Ltd., priority 2022, published 2026).

What was measured:
GDP-KRAS G12V = GDP-KRAS G12V (Homo sapiens, UniProt P01116, G12V); assay: biochemical
GDP-KRAS G12D = GDP-KRAS G12D (Homo sapiens, UniProt P01116, G12D); assay: biochemical

Structure (SMILES) | IC50 (GDP-KRAS G12V) [nM] | IC50 (GDP-KRAS G12D) [nM]
C#Cc1c(F)c(F)cc2cc(N)cc(-c3nc4c5c(nc(OC[C@@]67CCCN6CC(=C)C7)nc5c3F)N3CCCOC[C@H]3CO4)c12 [Compound 34] | 0.798 | 1.31
C#Cc1c(F)ccc2cc(N)cc(-c3nc4c5c(nc(OCC67CC(=C)CN6C[C@H](F)C7)nc5c3F)N3CCCOC[C@H]3CO4)c12 (some centres unmarked) [Compound 13] | 0.978 | 1.21
C#Cc1c(F)ccc2cc(N)cc(-c3nc4c5c(nc(OC[C@@]67CCCN6C[C@H](F)C7)nc5c3F)N3[C@@H](C)CCO[C@H](C)[C@H]3N4C)c12 [Compound 122] | 1.39 | 2.68
C#Cc1c(F)ccc2cc(N)cc(-c3nc4c5c(nc(OC[C@@]67CCCN6C[C@H](F)C7)nc5c3F)N3CCOCC3CC4=C)c12 (some centres unmarked) [Compound 22] | 5.16 | 6.97
CSc1cccc2cc(N)cc(-c3nc4c5c(nc(OC[C@@]67CCCN6C[C@H](F)C7)nc5c3F)N3CCCOC[C@H]3N4C)c12 [Compound 149] | 5.08 | 10.2
C#Cc1c(F)ccc2cc(N)cc(-c3nc4c5c(nc(OC[C@@]67CCCN6C[C@H](F)C7)nc5c3F)N3[C@@H](C)CCCC[C@H]3N4C)c12 [Compound 88] | 0.579 | 0.643
C#Cc1c(F)ccc2cc(N)cc(-c3nc4c5c(nc(OC[C@]67CC(=C)CN6C[C@@H](OC)C7)nc5c3F)N3CCCOC[C@H]3N4C)c12 [Compound 170] | 2.03 | 8.14
C#Cc1c(F)ccc2cc(N)cc(-c3c(Cl)c4c5c(nc(OC[C@@]67CCCN6C[C@H](F)C7)nc5c3F)N3CCCOC[C@H]3CO4)c12 [Compound 11] | 2.62 | 3.49
C#Cc1c(F)ccc2cc(N)cc(-c3nc4c5c(nc(OC(C)[C@@]67CCCN6C[C@H](F)C7)nc5c3F)N3CCCOCC3N4C)c12 (some centres unmarked) [Compound 150] | 7.35 | 8.27
C#Cc1c(F)ccc2cc(N)cc(-c3nc4c5c(nc(OCC67C[C@@H](F)CN6CC6(CC6)C7)nc5c3F)N3CCCOC[C@H]3CO4)c12 (some centres unmarked) [Compound 33] | 0.89 | 0.866
C#Cc1c(F)ccc2cc(N)cc(-c3nc4c5c(nc(OC[C@@]67CCCN6C[C@H](F)C7)nc5c3F)N3CC(F)CCCC3N4C)c12 (some centres unmarked) [Compound 47] | 0.945 | 1.25
C#Cc1c(F)ccc2cc(N)cc(-c3nc4c5c(nc(OC[C@@]67CCCN6C[C@H](F)C7)nc5c3F)N3CCCCOC3N4C)c12 (some centres unmarked) [Compound 70] | 1.9 | 2.07
C#Cc1c(F)ccc2cc(N)cc(-c3cc4c5c(nc(OC[C@@]67CCCN6C[C@H](F)C7)nc5c3F)N3[C@@H](C)CCOC[C@H]3N4C)c12 [Compound 44] | 0.635 | 2.07
